Laboratory results from PubChem BioAssay AID485294 (National Center for Advancing Translational Sciences (NCATS), 2010).
In all, about 370,000 compounds went through this assay and about 150 (0.041%) were called active. Inconclusive means that the source gave no clear call. Such entries were picked first, then a sample of the others. Calls come from the whole dose curve; as a rule, active = well fitted inhibition curve with a large enough effect; inconclusive = small, poorly fitted or top-dose-only effect; inactive = flat fitted curve, though single readings scatter. Potencies of inconclusive entries are left out as doubtful fits.

The compounds below were run against Beta-lactamase (Escherichia coli (strain K12)) (UniProt P00811) (assay: qHTS Inhibitors of AmpC Beta-Lactamase (assay with detergent)). Conditions: AmpC hydrolysis of nitrocefin, absorbance 480 nm, 0.01% Triton; series mostly up to 114 µM.
UniProt P00811, sequence (P00811 whole entry, looked up): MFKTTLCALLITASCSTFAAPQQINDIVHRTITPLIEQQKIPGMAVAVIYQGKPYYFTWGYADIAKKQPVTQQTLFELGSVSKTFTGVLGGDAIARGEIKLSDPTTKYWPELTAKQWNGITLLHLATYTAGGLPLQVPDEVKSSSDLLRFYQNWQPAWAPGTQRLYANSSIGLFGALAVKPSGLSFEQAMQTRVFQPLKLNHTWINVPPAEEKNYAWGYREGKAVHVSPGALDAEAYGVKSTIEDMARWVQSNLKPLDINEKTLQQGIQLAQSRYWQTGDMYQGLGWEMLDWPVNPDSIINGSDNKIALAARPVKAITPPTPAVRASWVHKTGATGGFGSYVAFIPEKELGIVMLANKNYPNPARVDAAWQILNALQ
In short: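 20 mM phosphate pH 7.0 + 0.01% (detergent screen) or 0.0001% Triton X-100; 5.3 nM AmpC reagent; cpd preinc 15 min RT; nitrocefin (800 uM stock) to start; A480 q20 s × 4 min; Activity was normalised to no-enzyme and no-compound control wells.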
Note: nearly all actives have a fitted effect of over 25% in size.
Potency is the fitted concentration of half-maximal effect; tags give direction and shape of the fitted curve.

Structure (SMILES) | Potency
CC(=O)N1CCc2cc(S(=O)(=O)NC(Cc3ccccc3)C(=O)Nc3cc(C)ccn3)ccc21 (stereo not drawn) | inconclusive [inhibitor, full curve]
Cc1cc2nc(C)n(CCCNC(=O)Nc3ccc(F)cc3)c2cc1C | inactive
CN(C1CCCCC1)S(=O)(=O)CCNC(=O)c1ccccc1 | inconclusive [inhibitor, full curve]
CCn1c(C(C)NC(=O)c2cccs2)nc2ccccc21 (stereo not drawn) | inconclusive [inhibitor, partial curve]
COc1ccc(C2=NS(=O)(=O)N(C)C(C(=O)NC3CCCC3)=C2)cc1 | inconclusive [inhibitor, partial curve]
COc1ccc(-c2cc(=O)c3cc(F)ccc3[nH]2)cc1 | inconclusive [inhibitor, partial curve, poor fit]
COc1cccc(OCCn2cc(C(=O)c3ccco3)c3ccccc32)c1 | inconclusive [inhibitor, partial curve]
O=C(O)c1cccnc1SC1CC(=O)N(Cc2ccccc2)C1=O (stereo not drawn) | inconclusive [inhibitor, single point]
COc1ccc(C2=Nc3cc(C)ccc3OC2)cc1 | inconclusive [inhibitor, partial curve]
Cc1ccc(CSCC(=O)N/N=C/c2ccc(OCC(=O)Nc3ccc(C)cc3)cc2)cc1 | inconclusive [inhibitor, single point]
Cc1ccc(CNC(=O)CSc2nc3ccsc3c(=O)n2NC(=O)c2ccccc2)cc1 | inconclusive [inhibitor, full curve, poor fit]
CCN(CC)CCNC(=O)c1ccc(N)cc1 | inconclusive [inhibitor, full curve, poor fit]
O=C(c1ccccc1O)N1N=C(c2ccccc2)CC1(O)C(F)(F)F (stereo not drawn) | inconclusive [inhibitor, full curve, poor fit]
Cc1cccn2c1nc(=S)n2C(=O)c1ccco1 | inconclusive [inhibitor, full curve]
O=C(NN=C1c2ccccc2-c2ccccc21)c1ccccn1 | inactive
NC[C@H](O)c1ccc(O)c(O)c1 | inactive
O=c1cc(C(Cl)(Cl)Cl)oc2c1ccc1ccccc12 | inconclusive [inhibitor, full curve, poor fit]
Cc1nn(-c2ccccc2)c2[nH]c(=O)c(CNCC3CCCO3)cc12 (stereo not drawn) | inconclusive [inhibitor, partial curve, poor fit]
